According to patent publication US10273244B2, “Substituted hexahydropyrrolo[3,4-b]pyrroles and hexahydrocyclopenta[c]pyrroles as dopamine receptor modulators” (INDIVIOR UK LIMITED, priority 2015, dated 2019):
Where a name gives a salt, the structure may show the parent alone.

target: human dopamine receptor type 2, long variant (hD2L), CHO-Gα16-hD2L cells (Homo sapiens (Human), UniProt P14416); conditions: not given
Chain of UniProt P14416 (P14416 whole entry): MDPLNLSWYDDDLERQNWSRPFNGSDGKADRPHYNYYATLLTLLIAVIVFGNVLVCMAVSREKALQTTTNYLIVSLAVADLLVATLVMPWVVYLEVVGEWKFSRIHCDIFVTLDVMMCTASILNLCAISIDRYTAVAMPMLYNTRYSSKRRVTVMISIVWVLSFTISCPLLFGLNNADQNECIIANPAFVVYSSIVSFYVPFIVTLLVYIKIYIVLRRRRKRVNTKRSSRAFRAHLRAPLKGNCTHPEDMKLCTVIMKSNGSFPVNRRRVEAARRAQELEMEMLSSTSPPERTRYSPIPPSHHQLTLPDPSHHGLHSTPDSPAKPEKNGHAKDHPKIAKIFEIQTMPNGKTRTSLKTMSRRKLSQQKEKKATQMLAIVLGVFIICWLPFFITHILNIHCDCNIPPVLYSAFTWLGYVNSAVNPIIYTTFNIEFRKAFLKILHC

| Ki | Structure (SMILES) |
| --- | --- |
| 0.372 µM | Cc1ncoc1-c1nnc(SCCCN2C[C@@H]3CCN(c4ccccc4)[C@@H]3C2)n1C (single isomer, unassigned) [Example 15, 3-({3-[(3aS,6aS or 3aR,6aR)-1-phenyl-octahydropyrrolo[2,3-c]pyrrol-5-yl]propyl}sulfanyl)-4-methyl-5-(4-methyl-1,3-oxazol-5-yl)-4H-1,2,4-triazole] |
| 0.145 µM | Cc1ncoc1-c1nnc(SCCCN2C[C@H]3CCN(c4ccccc4)[C@H]3C2)n1C (single isomer, unassigned) [Example 16, 3-({3-[(3aR,6aR or 3aS,6aS)-1-phenyl-octahydropyrrolo[2,3-c]pyrrol-5-yl]propyl}sulfanyl)-4-methyl-5-(4-methyl-1,3-oxazol-5-yl)-4H-1,2,4-triazole] |
| 0.0457 µM | Cc1ncoc1-c1nnc(SCCCN2C[C@@H]3CCN(c4ccc(F)cc4)[C@@H]3C2)n1C (single isomer, unassigned) [Example 23] |
| 0.457 µM | Cn1c(SCCCN2C[C@@H]3CCN(c4ccc(C(F)(F)F)cc4)[C@@H]3C2)nnc1C1CCOCC1 (single isomer, unassigned) [Example 34, 3-({3-[(3aS,6aS or 3aR,6aR)-1-[4-(trifluoromethyl)phenyl]-octahydropyrrolo[2,3-c]pyrrol-5-yl]propyl}sulfanyl)-4-methyl-5-(oxan-4-yl)-4H-1,2,4-triazole] |
| 0.468 µM | Cn1c(SCCCN2C[C@H]3CCN(c4ccc(C(F)(F)F)cc4)[C@H]3C2)nnc1C1CCOCC1 (single isomer, unassigned) [Example 35, 3-({3-[(3aR,6aR or 3aS,6aS)-1-[4-(trifluoromethyl)phenyl]-octahydropyrrolo[2,3-c]pyrrol-5-yl]propyl}sulfanyl)-4-methyl-5-(oxan-4-yl)-4H-1,2,4-triazole] |
| 0.282 µM | Cn1c(SCCCN2C[C@H]3CCN(c4ccc(C(F)(F)F)cc4)[C@H]3C2)nnc1C1CCCCC1 (single isomer, unassigned) [Example 60, 3-({3-[(3aR,6aR or 3aS,6aS)-1-[4-(trifluoromethyl)phenyl]-octahydropyrrolo[3,4-b]pyrrol-5-yl]propyl}sulfanyl)-5-cyclohexyl-4-methyl-4H-1,2,4-triazole] |
| 1.48 µM | Cn1c(SCCCN2C[C@@H]3CCN(c4cccnc4)[C@@H]3C2)nnc1C1CCCCC1 (single isomer, unassigned) [Example 69, 3-[(3aS,6aS or 3aR,6aR)-5-{3-[(5-cyclohexyl-4-methyl-4H-1,2,4-triazol-3-yl)sulfanyl]propyl}-octahydropyrrolo[2,3-c]pyrrol-1-yl]pyridine] |
| > 10 µM | Cn1c(SCCCN2C[C@H]3CCN(c4cccnc4)[C@H]3C2)nnc1C1CCCCC1 (single isomer, unassigned) [Example 70, 3-[(3aR,6aR or 3aS,6aS)-5-{3-[(5-cyclohexyl-4-methyl-4H-1,2,4-triazol-3-yl)sulfanyl]propyl}-octahydropyrrolo[2,3-c]pyrrol-1-yl]pyridine] |
| 0.138 µM | Cn1c(SCCCN2C[C@H]3CCN(c4ccc(C(F)(F)F)cc4)[C@H]3C2)nnc1[C@@H]1COCCO1 (single isomer, unassigned) [Example 76, 3-({3-[(3aR,6aR or 3aS,6aS)-1-[4-(trifluoromethyl)phenyl]-octahydropyrrolo[3,4-b]pyrrol-5-yl]propyl}sulfanyl)-5-[(2R or 2S)-1,4-dioxan-2-yl]-4-methyl-4H-1,2,4-triazole dihydrochloride] |
| 1.23 µM | Cn1c(SCCCN2C[C@@H]3CCN(c4ccc(C(F)(F)F)cc4)[C@@H]3C2)nnc1[C@@H]1COCCO1 (single isomer, unassigned) [Example 77, 3-({3-[(3aR,6aR or 3aS,6aS)-1-[4-(trifluoromethyl)phenyl]-octahydropyrrolo[3,4-b]pyrrol-5-yl]propyl}sulfanyl)-5-[(2R or 2S)-1,4-dioxan-2-yl]-4-methyl-4H-1,2,4-triazole dihydrochloride] |

same assay, conditions: functional pKi, FLIPR Ca2+, antagonism of dopamine EC80

| D2 fpKi | Structure (SMILES) |
| --- | --- |
| 6.53 | Cc1ncoc1-c1nnc(SCCCN2C[C@@H]3CCN(c4ccc(F)cc4)[C@@H]3C2)n1C (single isomer, unassigned) [Example 24] |

target: human dopamine type 3 receptor (CHO-hD3 membranes) (Homo sapiens (Human), UniProt P35462); conditions: not given
Chain of UniProt P35462 (P35462 whole entry): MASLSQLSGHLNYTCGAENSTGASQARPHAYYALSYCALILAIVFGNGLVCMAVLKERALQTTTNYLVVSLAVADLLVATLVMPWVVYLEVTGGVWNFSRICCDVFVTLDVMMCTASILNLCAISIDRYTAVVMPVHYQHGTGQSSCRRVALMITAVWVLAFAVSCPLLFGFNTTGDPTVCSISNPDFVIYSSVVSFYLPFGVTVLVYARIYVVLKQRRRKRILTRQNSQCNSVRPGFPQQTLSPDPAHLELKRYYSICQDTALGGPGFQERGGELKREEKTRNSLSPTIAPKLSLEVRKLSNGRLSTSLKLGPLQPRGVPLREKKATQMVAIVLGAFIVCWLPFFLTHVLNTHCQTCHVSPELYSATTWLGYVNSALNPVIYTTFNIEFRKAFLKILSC

| Structure (SMILES) | D3 pKi |
| --- | --- |
| Cn1c(SCCCN2C[C@@H]3CCN(c4ccc(C(F)(F)F)cc4)[C@@H]3C2)nnc1-c1ccc(C(N)=O)nc1 [Example 196, 5-[5-({3-[(3aS,6aS or 3aR,6aR)-1-[4-(trifluoromethyl)phenyl]-octahydropyrrolo[3,4-b]pyrrol-5-yl]propyl}sulfanyl)-4-methyl-4H-1,2,4-triazol-3-yl]pyridine-2-carboxamide] | 9.23 |
| Cn1c(SCCCN2C[C@H]3CCN(c4ccc(C(F)(F)F)cc4)[C@H]3C2)nnc1-c1ccc(C(N)=O)nc1 [Example 197, 5-[5-({3-[(3aR,6aR or 3aS,6aS)-1-[4-(trifluoromethyl)phenyl]-octahydropyrrolo[3,4-b]pyrrol-5-yl]propyl}sulfanyl)-4-methyl-4H-1,2,4-triazol-3-yl]pyridine-2-carboxamide] | 9.03 |
| Cn1c(SCCCN2C[C@@H]3CCN(c4ccc(F)cc4)[C@@H]3C2)nnc1-c1ccc(C(N)=O)nc1 [Example 199, 5-[5-({3-[(3aS,6aS or 3aR,6aR)-1-(4-fluorophenyl)-octahydropyrrolo[3,4-b]pyrrol-5-yl]propyl}sulfanyl)-4-methyl-4H-1,2,4-triazol-3-yl]pyridine-2-carboxamide] | 9.29 |
| Cn1c(SCCCN2C[C@H]3CCN(c4ccc(F)cc4)[C@H]3C2)nnc1-c1ccc(C(N)=O)nc1 [Example 200, 5-[5-({3-[(3aR,6aR or 3aS,6aS)-1-(4-fluorophenyl)-octahydropyrrolo[3,4-b]pyrrol-5-yl]propyl}sulfanyl)-4-methyl-4H-1,2,4-triazol-3-yl]pyridine-2-carboxamide] | 8.75 |
| Cn1c(SCCCN2C[C@@H]3CCN(c4c(F)cccc4F)[C@@H]3C2)nnc1-c1ccc(C(N)=O)nc1 [Example 202, 5-[5-({3-[(3aS,6aS or 3aR,6aR)-1-(2,6-difluorophenyl)-octahydropyrrolo[3,4-b]pyrrol-5-yl]propyl}sulfanyl)-4-methyl-4H-1,2,4-triazol-3-yl]pyridine-2-carboxamide] | 8.42 |
| Cn1c(SCCCN2C[C@H]3CCN(c4c(F)cccc4F)[C@H]3C2)nnc1-c1ccc(C(N)=O)nc1 [Example 203, 5-[5-({3-[(3aR,6aR or 3aS,6aS)-1-(2,6-difluorophenyl)-octahydropyrrolo[3,4-b]pyrrol-5 yl]propyl}sulfanyl)-4-methyl-4H-1,2,4-triazol-3-yl]pyridine-2-carboxamide] | 8.88 |
| Cn1c(SCCCN2C[C@@H]3CCN(c4c(F)cc(F)cc4F)[C@@H]3C2)nnc1-c1ccc(C(N)=O)nc1 [Example 205, 5-[5-({3-[(3aS,6aS or 3aR,6aR)-1-(2,4,6-trifluorophenyl)-octahydropyrrolo[2,3-c]pyrrol-5-yl]propyl}sulfanyl)-4-methyl-4H-1,2,4-triazol-3-yl]pyridine-2-carboxamide] | 9.19 |
| Cn1c(SCCCN2C[C@H]3CCN(c4c(F)cc(F)cc4F)[C@H]3C2)nnc1-c1ccc(C(N)=O)nc1 [Example 206, 5-[5-({3-[(3aR,6aR or 3aS,6aS)-1-(2,4,6-trifluorophenyl)-octahydropyrrolo[2,3-c]pyrrol-5-yl]propyl}sulfanyl)-4-methyl-4H-1,2,4-triazol-3-yl]pyridine-2-carboxamide] | 8.32 |

same assay, conditions: displacement of 0.3 nM [3H]-Spiperone

| D3 pKi | Structure (SMILES) |
| --- | --- |
| 9.11 | Cn1c(SCCCN2CC3CCN(c4ccc(C(F)(F)F)cc4)C3C2)nnc1-c1ccc(C(N)=O)nc1 (stereo not drawn) [Example 195, 5-{4-methyl-5-[(3-{1-[4-(trifluoromethyl)phenyl]-octahydropyrrolo[3,4-b]pyrrol-5-yl}propyl)sulfanyl]-4H-1,2,4-triazol-3-yl}pyridine-2-carboxamide] |
| 9.28 | Cn1c(SCCCN2CC3CCN(c4ccc(F)cc4)C3C2)nnc1-c1ccc(C(N)=O)nc1 (stereo not drawn) [Example 198, 5-[5-({3-[1-(4-fluorophenyl)-octahydropyrrolo[3,4-b]pyrrol-5-yl]propyl}sulfanyl)-4-methyl-4H-1,2,4-triazol-3-yl]pyridine-2-carboxamide] |
| 8.85 | Cn1c(SCCCN2CC3CCN(c4c(F)cccc4F)C3C2)nnc1-c1ccc(C(N)=O)nc1 (stereo not drawn) [Example 201, 5-[5-({3-[1-(2,6-difluorophenyl)-octahydropyrrolo[3,4-b]pyrrol-5-yl]propyl}sulfanyl)-4-methyl-4H-1,2,4-triazol-3-yl]pyridine-2-carboxamide] |
| 8.98 | Cn1c(SCCCN2CC3CCN(c4c(F)cc(F)cc4F)C3C2)nnc1-c1ccc(C(N)=O)nc1 (stereo not drawn) [Example 204, 5-[4-methyl-5-({3-[1-(2,4,6-trifluorophenyl)-octahydropyrrolo[2,3-c]pyrrol-5-yl]propyl}sulfanyl)-4H-1,2,4-triazol-3-yl]pyridine-2-carboxamide] |
| 8.09 | Cn1c(SCCCN2CC3CCN(c4ccc(F)cc4)C3C2)nnc1-c1ccn(C)c(=O)c1 (stereo not drawn) [Example 207, 4-[5-({3-[1-(4-fluorophenyl)-octahydropyrrolo[3,4-b]pyrrol-5-yl]propyl}sulfanyl)-4-methyl-4H-1,2,4-triazol-3-yl]-1-methyl-1,2-dihydropyridin-2-one] |
| 7.64 | Cn1c(CCCCN2CC3CCN(c4ccc(C(F)(F)F)cc4)C3C2)nnc1C1CCOCC1 (stereo not drawn) [Example 213, 4-methyl-3-(oxan-4-yl)-5-(4-{1-[4-(trifluoromethyl)phenyl]-octahydropyrrolo[2,3-c]pyrrol-5-yl}butyl)-4H-1,2,4-triazole] |
| 7.09 | Cc1ncoc1-c1nnc(CCCCN2CC3CCN(c4ccc(F)cc4)C3C2)n1C.Cl.Cl (stereo not drawn) [Example 217, 3-{4-[1-(4-fluorophenyl)-octahydropyrrolo[2,3-c]pyrrol-5-yl]butyl}-4-methyl-5-(4-methyl-1,3-oxazol-5-yl)-4H-1,2,4-triazole dihydrochloride] |
| 7.39 | Cc1ncoc1-c1nnc(SCCCN2CCC3CCN(c4ccc(C(F)(F)F)cc4)CC32)n1C.Cl.Cl (stereo not drawn) [Example 244, 4-methyl-3-(4-methyl-1,3-oxazol-5-yl)-5-[(3-{6-[4-(trifluoromethyl)phenyl]-octahydro-1H-pyrrolo[2,3-c]pyridin-1-yl}propyl)sulfanyl]-4H-1,2,4-triazole dihydrochloride] |
